Source: article PMC4336329 (PLoS ONE, 2015)
Among all 310,000 compounds or so, about 2,200 (0.71%) showed an effect of 50% or more. Effects have a minus sign here. The list shows a part of the results.

Target: human ether-à-go-go-related gene (hERG) potassium channel (human, UniProt Q12809)
Assay: primary screen, population patch clamp on CHO cells stably expressing hERG

Chain of human ether-à-go-go-related gene (hERG) potassium channel (Q12809 whole entry, looked up): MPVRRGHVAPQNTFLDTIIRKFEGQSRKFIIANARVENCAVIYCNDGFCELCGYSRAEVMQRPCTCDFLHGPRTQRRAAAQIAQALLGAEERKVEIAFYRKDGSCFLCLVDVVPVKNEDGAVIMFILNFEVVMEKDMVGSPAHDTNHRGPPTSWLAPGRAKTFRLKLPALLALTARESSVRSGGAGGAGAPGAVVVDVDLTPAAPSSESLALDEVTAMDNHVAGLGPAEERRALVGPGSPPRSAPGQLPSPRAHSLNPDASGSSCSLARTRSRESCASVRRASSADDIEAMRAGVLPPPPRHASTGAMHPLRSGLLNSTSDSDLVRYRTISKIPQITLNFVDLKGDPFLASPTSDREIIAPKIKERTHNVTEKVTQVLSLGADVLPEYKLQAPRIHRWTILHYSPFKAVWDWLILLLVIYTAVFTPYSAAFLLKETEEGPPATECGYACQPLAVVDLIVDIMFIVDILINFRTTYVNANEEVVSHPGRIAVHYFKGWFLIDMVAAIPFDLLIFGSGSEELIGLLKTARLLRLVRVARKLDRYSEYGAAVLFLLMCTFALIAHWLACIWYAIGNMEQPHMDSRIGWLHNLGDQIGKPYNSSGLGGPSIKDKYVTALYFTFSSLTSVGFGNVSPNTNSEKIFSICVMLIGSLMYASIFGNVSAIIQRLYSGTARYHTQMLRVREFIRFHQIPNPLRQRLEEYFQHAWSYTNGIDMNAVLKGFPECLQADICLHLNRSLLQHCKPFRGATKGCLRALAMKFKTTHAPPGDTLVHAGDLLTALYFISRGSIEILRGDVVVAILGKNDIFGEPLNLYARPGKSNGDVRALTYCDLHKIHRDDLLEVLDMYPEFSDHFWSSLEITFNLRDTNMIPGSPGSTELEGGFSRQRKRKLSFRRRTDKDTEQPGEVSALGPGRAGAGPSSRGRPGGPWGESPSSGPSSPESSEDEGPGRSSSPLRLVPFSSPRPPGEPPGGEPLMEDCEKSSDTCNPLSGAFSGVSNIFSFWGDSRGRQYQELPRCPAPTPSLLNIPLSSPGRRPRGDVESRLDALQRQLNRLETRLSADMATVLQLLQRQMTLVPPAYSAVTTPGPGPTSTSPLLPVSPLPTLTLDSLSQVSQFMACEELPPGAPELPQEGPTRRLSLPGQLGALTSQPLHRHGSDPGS

Structure (SMILES)	hERG current change (%, negative = inhibition) at 1uM [%]
CN(C(=O)COC(=O)CNC(=O)c1ccccc1F)C1CCCCC1	11.1
Cc1ccc(C(=O)/C=C/c2ccccc2[N+](=O)[O-])cc1	8.96
Nc1c([N+](=O)[O-])cc(-c2cnc[nH]2)cc1[N+](=O)[O-]	8.5
O=C(CSc1nnnn1C1CCCCC1)N1CCc2ccccc21	-0.564
COc1ccc2cc(CCl)c(Cl)nc2c1	-0.928
COc1ccc(CNC(=O)CCSCc2cccc(Cl)c2)c(OC)c1	-2.85
O=C(Nc1ccccn1)C(=O)N1CCCCC1	10.1
CCOc1ncccc1C(=O)NCCc1c[nH]c2ccccc12	9.61
O=C(CN1CCC(n2nnc3cc(C(F)(F)F)ccc32)CC1)Nc1ccc2c(c1)CCC2	12.6
O=C(c1cnc2sccn2c1=O)N(Cc1ccccc1)c1ccccn1	3.66
Cc1ccccc1C(=O)N1CCC(C(=O)Nc2ccccn2)CC1	7.06
CC(C)c1ccc(NC2CCCN(C(=O)CCN3CCCCC3=O)C2)cc1 (stereo not shown)	15.4
N#Cc1c(N)nc2c3c(sc(=N)c2c1N)NC(=O)CC3c1ccccc1 (stereo not shown)	14.9
CC(=O)N1c2ccccc2C(C)(c2ccccc2)CC1(C)C (stereo not shown)	-16.7
O=C(CCCn1c(=S)[nH]c2ccccc2c1=O)NC1CCCCC1	12.7
COc1ccc(CC(=O)NNC(=S)Nc2ccccc2)cc1Br	6.42
COC(=O)Cc1ccc(NC(=S)NCc2ccc(OC)cc2)cc1	13.1
Cn1ccc(C(=O)OCC(=O)c2ccccc2)n1	5.98
Cc1ccc(C(=O)NCCCc2ccccc2)s1	2.48
Cc1ccc([N+](=O)[O-])cc1NC(=O)c1c(-c2ccccc2)noc1C	4.13

Structure (SMILES)	hERG current change (%, negative = inhibition) at 1uM [%]
C=CCOc1c(Cl)cc(CNc2nccs2)cc1OC	-13.7
CCOC(=O)N1CCC(N2C(=O)c3ccc(C(=O)NCCOC)cc3C2=O)CC1	13.2
CN(C)S(=O)(=O)N1CCN(C(=O)c2ccc3c(c2)OCO3)CC1	7.09
COc1ccc(NC(=O)CC2C(=O)NCCN2C(=O)c2ccc(N(C)C)cc2)cc1 (stereo not shown)	1.73
CCCS(=O)(=O)N1CCN(Cc2ccc3c(c2)c2ccccc2n3CC)CC1.O=C(O)C(=O)O	8.61
Cc1ccc(C)c(OCCC(=O)NCCc2ccc(Cl)cc2)c1	13.4
Cc1c(C(=O)N2CCc3ccccc32)cnn1C	7.87
O=C(COC(=O)c1ccc(OC(F)F)cc1)NCCNC(=O)COC(=O)c1ccc(OC(F)F)cc1	-0.242
CN(Cc1cccc([N+](=O)[O-])c1)Cc1cccc2ccccc12	17
CC(C)(C)OC(=O)NCCc1nnc(SCc2cccc(Cl)c2)o1	9.96
COC(=O)[C@@H]1C[C@H]2CC[C@H](O)C[C@H]2N1Cc1ccc(C)s1	10.1
COc1cccc(C(=O)N2CCN(CCCc3ccccc3)CC2)c1OC.O=C(O)C(=O)O	-4.87
CN(Cc1nc2ccccc2c(=O)[nH]1)C(=O)COc1ccccc1Cc1ccccc1	-2.86
COc1ccc2nc3cccc(OC)c3nc2c1	4.15
Cc1ccccc1C(=O)c1cccn1CC(=O)NCc1ccc2c(c1)OCO2	17.8
COc1ccc(C2=NS(=O)(=O)N(C)C(C(=O)N3CCC(C)CC3)=C2)cc1	-13.6
COC(CNC(=O)C1CCCN1C(=O)OCc1ccccc1)OC (stereo not shown)	-8.76
O=C1C2C3C=CC(C4CC34)C2C(=O)N1/N=C/c1ccc([N+](=O)[O-])o1 (stereo not shown)	8.06
O=C(NCCn1cc(SCC(=O)N2CCOCC2)c2ccccc21)c1ccccc1	3.53
O=C(Nc1ccc2c(c1)CCC2)c1ccccc1	17.8

Structure (SMILES)	hERG current change (%, negative = inhibition) at 1uM [%]
CCOc1ccccc1-c1nc(-c2ccc(NC(=O)c3ccc(Br)o3)cc2)no1	3.19
CC(C)n1nnnc1SCC(=O)NCCc1ccccc1	7.75
COc1ccc(C(C(=O)Nc2ccc(C(C)C)cc2)N(C)C(=O)c2ccc(=O)[nH]c2)cc1 (stereo not shown)	10.8
CC(C)CCC(C)NC(=O)Cc1ccc(S(=O)(=O)N2CCOCC2)s1 (stereo not shown)	19
CCOCc1nnc(NC(=O)C2CC(=O)N(CCc3ccc(F)cc3)C2)s1 (stereo not shown)	12.4
Nc1[nH]c(=O)ncc1F	14.5
CCC1CCc2sc(C(=O)NCC(c3ccc(OC)cc3)N3CCOCC3)cc2C1 (stereo not shown)	22
O=C(Nc1nnc(Cc2ccccc2)s1)c1ccccc1	6.76
Cc1cc(NS(=O)(=O)c2ccc(NC(=O)/C=C/c3ccco3)cc2)nc(C)n1	6.56
O=S(=O)(Cc1noc(-c2ccc(Cl)cc2)n1)Cc1ccco1	5.41
CN1CCC(C2(O)c3ccccc3CCc3ccccc32)CC1	-6.78
COc1ccccc1NS(=O)(=O)c1ccc(O)c(C(N)=O)c1	1.68
O=C(CCCCCNc1nc(=S)[nH]c2ccccc12)NCCC1=CCCCC1	2.18
CC1CCC(NC(=O)C2CCN(c3nc4ccccc4s3)CC2)CC1 (stereo not shown)	13.9
O=C(N=C1SC2CS(=O)(=O)CC2N1Cc1ccccc1Cl)C1CCCO1 (stereo not shown)	20.4
CC(=O)Nc1c(C(=O)N2CCOCC2)sc2nc3c(cc12)COC(C)(C)C3	11.4
CCC1=NN2C(=N)/C(=C\c3cccn3-c3cccc(Cl)c3)C(=O)N=C2S1	10.3
Cn1c(C(=O)NC2CCCCC2)cc2c(=O)n3ccccc3nc21	13.4
